{
  "source": "paper PMC4336329",
  "about": "(PLoS ONE, 2015)",
  "note": "Screen size: about 310,000 compounds; about 2,200 (0.71%) showed an effect of 50% or more. The effect is printed as a negative number. The list shows a part of the results.",
  "data": [
    {"target": "human ether-à-go-go-related gene (hERG) potassium channel (human, UniProt Q12809)", "sequence (Q12809 whole entry, looked up)": "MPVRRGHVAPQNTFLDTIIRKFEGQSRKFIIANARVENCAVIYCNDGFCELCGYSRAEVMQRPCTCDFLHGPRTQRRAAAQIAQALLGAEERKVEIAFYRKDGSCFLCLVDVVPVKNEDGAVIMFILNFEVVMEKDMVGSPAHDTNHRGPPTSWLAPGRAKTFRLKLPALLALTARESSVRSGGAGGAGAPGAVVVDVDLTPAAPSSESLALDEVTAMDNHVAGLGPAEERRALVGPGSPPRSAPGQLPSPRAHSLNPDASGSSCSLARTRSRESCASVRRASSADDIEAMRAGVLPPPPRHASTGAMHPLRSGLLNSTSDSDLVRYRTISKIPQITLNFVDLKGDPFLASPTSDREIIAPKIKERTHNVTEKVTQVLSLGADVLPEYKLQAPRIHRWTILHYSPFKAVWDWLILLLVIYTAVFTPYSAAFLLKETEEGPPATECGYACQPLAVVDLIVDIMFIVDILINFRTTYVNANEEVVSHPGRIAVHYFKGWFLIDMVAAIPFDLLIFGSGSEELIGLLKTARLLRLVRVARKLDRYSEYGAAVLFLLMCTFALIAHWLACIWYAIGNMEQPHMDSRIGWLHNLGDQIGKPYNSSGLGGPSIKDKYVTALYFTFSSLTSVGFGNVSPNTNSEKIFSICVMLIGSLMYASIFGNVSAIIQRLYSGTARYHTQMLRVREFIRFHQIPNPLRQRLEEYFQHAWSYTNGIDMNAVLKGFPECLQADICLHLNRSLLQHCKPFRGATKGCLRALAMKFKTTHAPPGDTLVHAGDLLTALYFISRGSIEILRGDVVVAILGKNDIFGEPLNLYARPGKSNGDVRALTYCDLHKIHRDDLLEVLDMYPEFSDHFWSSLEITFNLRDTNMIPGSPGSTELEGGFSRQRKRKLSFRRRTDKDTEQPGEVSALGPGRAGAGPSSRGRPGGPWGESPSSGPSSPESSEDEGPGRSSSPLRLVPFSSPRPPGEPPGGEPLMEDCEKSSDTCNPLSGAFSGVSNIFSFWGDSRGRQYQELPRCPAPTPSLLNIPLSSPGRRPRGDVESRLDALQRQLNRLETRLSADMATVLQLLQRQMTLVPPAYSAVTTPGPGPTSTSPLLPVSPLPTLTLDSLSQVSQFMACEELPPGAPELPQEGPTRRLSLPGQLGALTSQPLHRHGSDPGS", "experiment": "primary screen, population patch clamp on CHO cells stably expressing hERG", "units": {"hERG current change (%, negative = inhibition) at 1uM": "%"}, "values": [
      {"smiles": "COc1ccc(OC)c(CCNC(=O)c2ccc(CS(=O)(=O)c3ccc(Br)cc3)o2)c1", "hERG current change (%, negative = inhibition) at 1uM": 5.55},
      {"smiles": "O=C(Nc1ccccc1N1CCCCC1)C1CCN(C(=O)c2ccc(Cl)cc2)CC1", "hERG current change (%, negative = inhibition) at 1uM": -28.6},
      {"smiles": "CC(NC(=O)c1cccc(OC2CCN(C3CCN(C)CC3)CC2)c1)c1ccccc1", "note": "(stereo not drawn)", "hERG current change (%, negative = inhibition) at 1uM": 13.6},
      {"smiles": "COCC(=O)N(Cc1cc2ccc(C)cc2[nH]c1=O)c1ccccc1C", "hERG current change (%, negative = inhibition) at 1uM": 10.9},
      {"smiles": "CCc1cc2c(=O)n(-c3ccccc3)c(=S)[nH]c2s1", "hERG current change (%, negative = inhibition) at 1uM": 11.3},
      {"smiles": "CSC1=NNC(c2ccc(C(C)(C)C)cc2)=NN1", "hERG current change (%, negative = inhibition) at 1uM": -9.5},
      {"smiles": "Cc1nc(C)c(C(=O)NCc2ccccc2Cl)o1", "hERG current change (%, negative = inhibition) at 1uM": 10.8},
      {"smiles": "CC(=O)C1=C(C)NC(C)=C(C(C)=O)C1c1cccs1", "hERG current change (%, negative = inhibition) at 1uM": 11.2},
      {"smiles": "O=C(N/N=C/c1ccco1)C1CC(=O)N(c2ccccc2)C1", "note": "(stereo not drawn)", "hERG current change (%, negative = inhibition) at 1uM": 1.02},
      {"smiles": "CC(=O)Nc1ccc(N2CCN(C(=O)c3cccs3)CC2)cc1", "hERG current change (%, negative = inhibition) at 1uM": 12.3},
      {"smiles": "CC1C(=O)N2CCCc3cc(S(=O)(=O)N4CCN(c5ccccc5F)CC4)cc1c32", "note": "(stereo not drawn)", "hERG current change (%, negative = inhibition) at 1uM": 18.3},
      {"smiles": "Cc1cc(Cl)ccc1OC(C)C(=O)Nc1cnn(CCCC(=O)O)c1", "note": "(stereo not drawn)", "hERG current change (%, negative = inhibition) at 1uM": 10.4},
      {"smiles": "O=C(NCc1ccccn1)C1(C(F)(F)F)C/C(=C\\CCO)CCCO1", "note": "(stereo not drawn)", "hERG current change (%, negative = inhibition) at 1uM": 8.39},
      {"smiles": "COc1ccc(-n2c(CNC(=O)COc3ccc(Cl)cc3Cl)n[nH]c2=S)cc1", "hERG current change (%, negative = inhibition) at 1uM": 1.91},
      {"smiles": "Cc1ccccc1N1C(=O)c2cccc3cccc(c23)C1=O", "hERG current change (%, negative = inhibition) at 1uM": 0.548},
      {"smiles": "Cc1nn(C)cc1CN1CCC(CO)(CCOc2ccccc2)CC1", "hERG current change (%, negative = inhibition) at 1uM": 8.14},
      {"smiles": "CCSc1nc2ccccc2n1Cc1ccccc1F", "hERG current change (%, negative = inhibition) at 1uM": 2.61},
      {"smiles": "COCC(=O)Nc1ccc(S(=O)(=O)NCCc2ccccc2)cc1", "hERG current change (%, negative = inhibition) at 1uM": 5.7},
      {"smiles": "O=C(Nc1ccc(S(=O)(=O)Nc2nccs2)cc1)/C(=C/c1ccccc1Cl)NC(=O)c1ccccc1", "hERG current change (%, negative = inhibition) at 1uM": 8.01},
      {"smiles": "CCN(CC)CCC(c1cc(OC)c(OC)c(OC)c1)c1c(OC)cc(OC)c2c(C)cc(=O)oc12", "note": "(stereo not drawn)", "hERG current change (%, negative = inhibition) at 1uM": -9.35},
      {"smiles": "CC(Sc1ncnc2ccccc12)C(=O)Nc1ccc2c(c1)OCCO2", "note": "(stereo not drawn)", "hERG current change (%, negative = inhibition) at 1uM": 12.3},
      {"smiles": "CC(C(N)=O)N1C(=O)c2cccc3cccc1c23", "note": "(stereo not drawn)", "hERG current change (%, negative = inhibition) at 1uM": 4.13},
      {"smiles": "NC(=O)C1CCN(C(=O)C2CC(=O)N(Cc3ccccc3)C2)CC1", "note": "(stereo not drawn)", "hERG current change (%, negative = inhibition) at 1uM": 4.11},
      {"smiles": "O=S(=O)(c1cccs1)N1CCN(CC(O)COc2cccc(Br)c2)CC1", "note": "(stereo not drawn)", "hERG current change (%, negative = inhibition) at 1uM": -11.2},
      {"smiles": "CCCNC(=O)c1ccc(Cl)cc1Cl", "hERG current change (%, negative = inhibition) at 1uM": 6.2},
      {"smiles": "O=C(c1ccc(S(=O)(=O)N2CCCCCC2)cc1)N1CCN(c2ccccc2)CC1", "hERG current change (%, negative = inhibition) at 1uM": -21.8},
      {"smiles": "CS(=O)(=O)c1ccc2nc(NC(=O)c3ccc(NS(=O)(=O)c4cccc([N+](=O)[O-])c4)cc3)sc2c1", "hERG current change (%, negative = inhibition) at 1uM": 12.6},
      {"smiles": "O=[N+]([O-])c1ccc(CSc2nnc3ccccn23)cc1", "hERG current change (%, negative = inhibition) at 1uM": -8.12},
      {"smiles": "O=c1c2ccccc2nc(/C=C/c2ccccc2O)n1-c1ccccc1O", "hERG current change (%, negative = inhibition) at 1uM": 13.6},
      {"smiles": "COc1ccc(Br)cc1C(=O)Nc1ccccc1N1CCN(C(=O)c2ccccc2)CC1", "hERG current change (%, negative = inhibition) at 1uM": 7.55},
      {"smiles": "COC(=O)CSc1nnc(-c2ccco2)n1-c1ccc(C)cc1", "hERG current change (%, negative = inhibition) at 1uM": -5.28},
      {"smiles": "Cc1ccc(NC(=O)CSC2=C(C#N)C(c3ccco3)C3=C(CC(C)(C)CC3=O)N2)cc1", "note": "(stereo not drawn)", "hERG current change (%, negative = inhibition) at 1uM": 18.7},
      {"smiles": "O=C(CCc1nnc2n(Cc3ccc(Cl)cc3)c(=O)c3ccccc3n12)NCCCN1CCOCC1", "hERG current change (%, negative = inhibition) at 1uM": -27.1},
      {"smiles": "O=C(c1ccc(CSc2ccc(Cl)cc2)cc1)N1CCCC1", "hERG current change (%, negative = inhibition) at 1uM": 9.01},
      {"smiles": "COc1cc(/C=N/N=C(/N)c2nonc2N)cc(Br)c1OCc1cccc(C)c1", "hERG current change (%, negative = inhibition) at 1uM": 7.35},
      {"smiles": "O=C(NC(NC(=S)N1CCOCC1)C(Cl)(Cl)Cl)c1cccc2ccccc12", "note": "(stereo not drawn)", "hERG current change (%, negative = inhibition) at 1uM": 10.1},
      {"smiles": "CCOC(=O)c1c(NC(=O)C2C3CCC(O3)C2C(=O)O)sc(C)c1-c1ccc(F)cc1", "note": "(stereo not drawn)", "hERG current change (%, negative = inhibition) at 1uM": 1.64},
      {"smiles": "CCCCN(C(=O)CN1C(=O)C2CC=CCC2C1=O)c1c(N)n(CCC)c(=O)[nH]c1=O", "note": "(stereo not drawn)", "hERG current change (%, negative = inhibition) at 1uM": 5.71},
      {"smiles": "Cc1ccc(/C(O)=C2\\C(=O)C(=O)N(Cc3cccnc3)C2c2ccccc2[N+](=O)[O-])cc1", "note": "(stereo not drawn)", "hERG current change (%, negative = inhibition) at 1uM": 13.4},
      {"smiles": "COC(=O)c1c(NC(=O)Cn2cnc([N+](=O)[O-])n2)sc2c1CCC(C)C2", "note": "(stereo not drawn)", "hERG current change (%, negative = inhibition) at 1uM": 8.84},
      {"smiles": "COc1c(C)cccc1C(=O)Nc1ccc(CN2CCOCC2)cc1", "hERG current change (%, negative = inhibition) at 1uM": 4.45},
      {"smiles": "Clc1ccccc1Cn1nnc(-c2ccccc2)n1", "hERG current change (%, negative = inhibition) at 1uM": 5.98},
      {"smiles": "Cc1cc(C)n(CC(=O)NCc2cc(-c3nn(C)c(=O)c4ccccc34)ccc2C)n1", "hERG current change (%, negative = inhibition) at 1uM": 2.9},
      {"smiles": "C=CCNc1nc(-c2c(C)nc3ncccn23)cs1", "hERG current change (%, negative = inhibition) at 1uM": 6.73},
      {"smiles": "COc1ccc(C(NC(=O)c2cc(OC)ccc2OC)c2ccccc2)cc1", "note": "(stereo not drawn)", "hERG current change (%, negative = inhibition) at 1uM": 11.2},
      {"smiles": "COC(=O)N1c2ccccc2CCc2ccccc21", "hERG current change (%, negative = inhibition) at 1uM": 5.26},
      {"smiles": "N#CC(c1ccc(Cl)cc1)c1ccc2c(C(F)(F)F)cc(C(F)(F)F)nc2n1", "note": "(stereo not drawn)", "hERG current change (%, negative = inhibition) at 1uM": 8.23},
      {"smiles": "O=C(c1ccc2c(c1)OCO2)C1CCCN(Cc2ccccc2OC(F)F)C1", "note": "(stereo not drawn)", "hERG current change (%, negative = inhibition) at 1uM": -16.9},
      {"smiles": "COc1cc2c(c(OC)c1CC=C(C)C)C[C@H](c1ccc(O)cc1O)CO2", "hERG current change (%, negative = inhibition) at 1uM": 18.2},
      {"smiles": "O=C(O)C(Cc1c[nH]c2ccccc12)NS(=O)(=O)c1cccc(Cl)c1Cl", "note": "(stereo not drawn)", "hERG current change (%, negative = inhibition) at 1uM": 14.1},
      {"smiles": "O=C(COc1cccc(C(F)(F)F)c1)NCC(c1cccs1)N1CCOCC1", "note": "(stereo not drawn)", "hERG current change (%, negative = inhibition) at 1uM": -5.17},
      {"smiles": "Cc1cc(=O)oc2cc(OC(=O)c3cncc(Br)c3)ccc12", "hERG current change (%, negative = inhibition) at 1uM": 10.6},
      {"smiles": "COc1ccc(C2/C=C\\CN(C(=O)c3ccc(C)cc3)CC(=O)N2Cc2ccc(F)cc2)cc1", "note": "(stereo not drawn)", "hERG current change (%, negative = inhibition) at 1uM": 2.19},
      {"smiles": "O=C(COC(=O)c1cccc(S(=O)(=O)N2CCOCC2)c1)Nc1ccc(Cl)cn1", "hERG current change (%, negative = inhibition) at 1uM": -4.49}
    ]}
  ]
}
